The record followed here is PubChem BioAssay AID463173 (ICCB-Longwood Screening Facility, Harvard Medical School, 2010).

The whole screen tested about 52,000 compounds, of which about 1,700 (3.3%) were called active. No stated cut-off is given here; in the data, active means survival mostly below about 52% (no sharp cut-off); inactive means mostly above about 56%. This is one part of the list.

The assay concerns Wild type. Kind of assay: S. aureus survival, RN4220 and DeltatarO strains – OD600, teichoic acid synthesis inhibitors, primary screen (AID 463173). The conditions noted are these: S. aureus RN4220 wild type/DeltatarO growth, OD600, 18 h, stronger effect = lower value, screened at 18.75 µg/mL (by protocol).
For the compound `Oc1cccc(C(=S)N2CCCCC2)c1`, the survival is inactive: 98%.
Under `COc1ccc(NC(=O)Nc2nnc(N(C)C3CCCCC3)s2)c(OC)c1` stands inactive: 73%; under `O=C(Nc1ccc(O)c(-c2nc3ccccc3o2)c1)c1ccco1`, inactive: 79%; under `CCOC(=O)c1sc(NC(=O)COc2ccccc2Cl)c(C(=O)OCC)c1C`, inactive: 99%.
Take `CC1CCN(C(=O)c2cc(-c3ccc(Cl)cc3)on2)CC1`: the survival is inactive: 85%.
`Cc1ccccc1NC(=O)CSc1nc2c(oc3ccccc32)c(=O)n1-c1ccccc1F`: the survival is inactive: 114%.
Regarding `Cc1cc(=O)n(CC(=O)O)c2ccccc12`, the survival was inactive: 98%.
In the case of `CC1=C(C(=O)OCC2CCCCC2)C(c2c(F)cccc2Cl)CC(=O)N1` (stereo unspecified), the survival is inactive: 98%.
Under `CCOc1ccc(S(=O)(=O)N(CC(=O)N2CCCCC2)c2ccccc2)cc1` stands inactive: 105%; under `COCCNC(=O)c1cc(Sc2ccc(F)cc2F)nc2ccccc12`, inactive: 79%.
As for `COc1cc(OC)c(NC(=O)Nc2ccccc2OCc2cc(=O)n3cc(C)ccc3n2)cc1Cl`, the survival is inactive: 101%.
Turning to `COc1ccc(CCNC(=O)CCc2c(C)nc3nc(C)nn3c2C)cc1OC`, the survival was inactive: 71%.
Consider `CCc1ccc(S(=O)(=O)c2nnn3c2nc(NC2CCCC2)c2sccc23)cc1`, for which the survival was inactive: 83%.
For `COc1ccc(C)cc1NC(=O)CCS(=O)(=O)c1ccc2c(c1)CC(=O)N2C`, the survival is inactive: 55%.
For `CCOc1ccccc1NC(=O)CN1CCC(NC(=O)Nc2ccccc2)CC1`, the survival is inactive: 92%.
For `CC(=O)N1c2nc(-c3ccco3)nn2C2(CCCCC2)[C@@H]2CCCC[C@@H]21`, the survival is inactive: 95%.
On to `COc1ccc(NC(=O)CN(C)S(=O)(=O)c2ccc3[nH]c4c(c3c2)CCCC4)cc1Cl`, for which the survival is inactive: 75%.
As to `COc1ccc(-n2ccn(Cc3ccc(C)cc3)c(=O)c2=O)cc1OC`, the survival was inactive: 94%.
`O=C(c1ccc2c(c1)N(Cc1ccc(F)cc1)C(=O)c1ccccc1S2(=O)=O)N1CCC(Cc2ccccc2)CC1`: the survival was inactive: 86%.
On to `O=C(CSc1ccc2ccccc2n1)Nc1nsc(-c2ccc(Cl)cc2)n1`, for which the survival was inactive: 68%.
For `CC(=O)Nc1ccc(-c2nn[nH]n2)cc1`, the survival was inactive: 106%.
Turning to `COc1ccc(Cn2c(SCc3ccc(C(=O)NCc4ccccc4F)cc3)nc3cccnc32)cc1`, the survival is inactive: 67%.
Regarding `Cc1cccc(-n2c(=O)c3c(c4cc(C)ccc4n3C)n(Cc3ccccc3F)c2=O)c1`, the survival is inactive: 153%.
Consider `COc1ccc(CNC(=O)c2cccc(NC(=O)N3CCSc4ncccc43)c2)cc1`, for which the survival was inactive: 67%.
For `Cc1ccc(Cl)cc1N1C(=O)N(Cc2ccc(C#N)cc2)c2ccccc2S1(=O)=O`, the survival is inactive: 55%.
As to `COc1ccc(C2=Nc3ccc(C)cc3NC(c3ccc(Cl)cc3)=N2)cc1`, the survival is inactive: 72%.
For the compound `COc1ccc(Cl)cc1NC(=O)CCCn1c(C)c2cnn(-c3ccccc3)c(=O)c2c1C`, the survival is inactive: 78%.
The figure for `COc1ccc(-c2noc(N3CCC(C(=O)Nc4ccc(C)c(F)c4)CC3)n2)cc1OC` is inactive: 82%; for `COc1cccc(Cn2c(=O)n(-c3ccc(Br)cc3F)c(=O)c3sc4ccccc4c32)c1` it is inactive: 76%.
For `COc1ccc(NC(=O)CCNS(=O)(=O)c2cccc3nsnc23)cc1OC`, the survival is inactive: 80%.
Regarding `COc1ccc(N(Cc2ccccc2)C(=O)c2nc(SC)ncc2Cl)cc1`, the survival was inactive: 113%.
`CCOc1cccc2cc(-c3nc4sc5c(c4c(=O)[nH]3)CCC(C)C5)c(=O)oc12` (stereo unspecified): the survival is inactive: 119%.
On to `CCCCNC(=O)CSc1nc2ccccc2nc1Cc1ccc(Cl)cc1`, for which the survival was inactive: 146%.
`Cc1ccc(NC(=O)CC2Nc3cccc4cccc(c34)NC2=O)cc1` (stereo unspecified): the survival is inactive: 95%.
`CCCOc1cccc(C(=O)N(Cc2cc(OC)c(OC)c(OC)c2)C2CCS(=O)(=O)C2)c1` (stereo unspecified): the survival was inactive: 83%.
On to `Cc1ccc2nc(N(CCCN(C)C)C(=O)c3ccc(Br)s3)sc2c1`, for which the survival was inactive: 90%.
Under `O=C(c1cnn2c(C(F)F)cc(-c3ccccc3)nc12)N1CCc2ccccc21` stands inactive: 95%.
Regarding `Cc1ccc(OCCn2nnc3sc4c(c3c2=O)CCC(C(C)(C)C)C4)cc1` (stereo unspecified), the survival was inactive: 93%.
Under `CC(C)c1ccc(NC(=O)c2cccn2-c2nnc(N3CCCCC3)s2)cc1` stands inactive: 88%; under `CCn1c(CN2CCC(C)CC2)nc2cc(NC(=O)COc3ccc([N+](=O)[O-])cc3)ccc21`, inactive: 86%.
In the case of `Cc1cccc(-n2ncc(C(=O)N3CCC(C)CC3)c2C2CCN(C(=O)OC(C)(C)C)CC2)c1`, the survival is inactive: 82%.
The figure for `CCOC(=O)c1cccc(NC(=O)CCCn2c(C)c3cnn(-c4ccccc4)c(=O)c3c2C)c1` is inactive: 77%; for `Cc1ccc(NC(=O)c2cc3c(=O)[nH]c4ccccc4c3n2C)cc1F` it is inactive: 82%.
For the compound `CCCCn1c(CNC(=O)c2ccc(OC)cc2)nnc1SCC(=O)Nc1ccccc1`, the survival was inactive: 81%.
Take `Cc1ccc(CNC(=O)CCC(=O)N2CC(C)Sc3ccccc32)cc1` (stereo unspecified): the survival is inactive: 77%.
For `COc1ccc(CCNC(=O)NCc2noc3ccc(C)cc23)c(OC)c1`, the survival is inactive: 93%.
Consider `CCN(CC)c1cc2c(cc1F)c(=O)c(S(=O)(=O)c1ccccc1)cn2Cc1ccccc1`, for which the survival was inactive: 73%.
As for `CC(=O)c1cccc(NS(=O)(=O)c2c(C)nc3sc(C)cn3c2=O)c1`, the survival was inactive: 92%.
As for `CCOC(=O)c1c(S(=O)(=O)NCC(=O)N2CCN(c3ccccc3OC)CC2)c(C)n(C)c1C`, the survival is inactive: 85%.
Consider `Cc1cc(C)c(/C=C/c2onc(C)c2S(=O)(=O)N2CCC(C(=O)N3CCN(c4ccccc4)CC3)CC2)c(C)c1`, for which the survival is inactive: 69%.
`COC(=O)c1ccc(Cn2c(SCc3cccc(C)c3)nc3ccncc32)cc1`: the survival is inactive: 105%.
For the compound `CCOC(=O)c1sc2ncn(CC(=O)Nc3ccc(C)cc3C)c(=O)c2c1C`, the survival is inactive: 92%.
On to `COc1ccc(S(=O)(=O)N(CC(=O)N2CCC(C)CC2)c2ccc(C)cc2)cc1`, for which the survival was inactive: 89%.
For `COc1ccccc1-c1nn(CCC(=O)Nc2cccc(C(C)=O)c2)c2nc(C)cc(C)c12`, the survival is inactive: 99%.
For the compound `Cc1ccc(-c2ccc(=O)n(C(C)C(=O)Nc3ccccc3Cl)n2)cc1C` (stereo unspecified), the survival is inactive: 76%.
With `COc1cccc(NC(=O)c2cn(C3CCCCC3)c(=O)c3c2c2ccccc2n3C)c1`, the survival is inactive: 71%.
